# ± gives the standard deviation of the averaged measurements. The list shows a part of the results.
# System: PfAP2-G AP2 domain (GST-tagged)
# Experiment: gcPBM binding intensity (ln(normalized median fluorescence intensity)); higher = stronger DNA binding
# How it was run: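 After 1 h on an Agilent 4 × 180k array of primer-extended double-stranded 36-bp intergenic genomic probes and negative controls, bound GST-tagged P. falciparum DNA-binding domains were detected with Alexa488 anti-GST antibody and scanned at 488 nm. The domains had been expressed in E. coli, and binding took place in 1× PBS with 1% milk, 0.2 mg/ml BSA, 0.5% salmon testes DNA and 0.03% Triton X-100. Binding intensity is the highest Masliner-normalised natural-log median intensity across replicate spots of either probe orientation.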
row,Sequence,gcPBM binding intensity (ln)
1,ATTTTATGAAATGTTGCACACAAAAAACAACATGTT [CACACA_site8408],10.4 ± 0.23
2,GAACAACAACAAAAAAAAAAAAAAAAAAAAAAAAAA [CACACA_negctrl_site199],9.71 ± 0.49
3,TAAATAAATATATGTACACACACAAATATATACATA [CACACA_site8577],11.4 ± 0.73
4,TATATGATATAATATACACACATACATATATATATA [CACACA_site8066],9.9 ± 0.17
5,CGCATAAAGACAAGAACACACATATATATTGTAGTA [CACACA_site5938],9.92 ± 0.24
6,CAACAACAAAAAAAAAAATAATAATAATAAAAAATA [TGCATGCA_negctrl_site271],9.57 ± 0.16
7,GTAATTTTATATGGTTGTACATATATATATATATAT [XGTACX_site6659],11.3 ± 0.91
8,TTATACCTGATTTAGGTGCTATAAATTTGTGTTTTT,10.1 ± 0.16
9,ATATATATATATATGTGTACTTATATATTTAAAAAA [XGTACX_site1761],11.4 ± 0.86
10,ATATATATATATATATATATTTATATGTGAAAACCC [CACACA_negctrl_site845],10 ± 0.32
11,TATTTTTTAAAAAAATGTCATAAAATTTCTTTTTTC [XGTACX_negctrl_site271],9.9
12,AGAAAAAAATAATGTACACACACATATATGTTTATA [CACACA_site7946],11.3 ± 0.82
13,ATATACAAAGGATTAACACACATATTATTATATATA [CACACA_site1880],9.8
14,TATATTAAGAAACACACACACATATATATATATATA [CACACA_site1609],10.2 ± 0.47
15,TAAATGTCTGTTAATGCACACGATATGTCTATATAT [CACACA_site2352],9.925 ± 0.021
16,CTTTCTATATAAAATCGTACATATATAATATTATAT [XGTACX_site5807],11.3 ± 0.83
17,TCCGCATGTACATGGGTGCACATAACACCCATTTAA [GTGCAC_site9881],11.2 ± 0.71
18,TTCCTATTTCCTATGTGTACTTATAAATAAGTGTCT [XGTACX_site3725],11.6 ± 0.81
19,GAAATTATAAATTGGACACACACATAAAAAATATGT [CACACA_site7957],10.8 ± 0.5
20,TAATTTTTTAAATTTAAACACACATTTTGTATATGT [CACACA_site8479],9.96 ± 0.057
21,TATATATATATATATTGTACGAACCTTTTTTTTTTT [XGTACX_site4169],11 ± 0.61
22,TGATACGTATTTATTTCACACACGTTAAAAAAATAA [CACACA_site3914],10.8 ± 0.78

row,Sequence,gcPBM binding intensity (ln)
1,TTATTTCTGAATATTTTTTTTTTTTCTTCTTTTTTA [CACACA_negctrl_site815],9.31 ± 0.2
2,CATGTGTTCTATATTTATGTCTAACTTTTTAATTAA [CACACA_negctrl_site904],10.1 ± 0.16
3,CTAACACTAATTTTTTGTACACAATATGTAAATAAA [XGTACX_site6424],11.2 ± 0.75
4,ATTTTTACATAGGAAGCATGCATATTTTAAAAATAA [TGCATGCA_site1046],9.99 ± 0.32
5,ATATATAATCATCACACATGCAGCCCTGATGAAAAA [TGCATGCA_site687],9.97 ± 0.14
6,GGGTATACCAATATAACACACATATATCTATAATAT [CACACA_site6348],10 ± 0.13
7,TAATGTAATACATATTGTACACATACATATATATTT [XGTACX_site7531],11.2 ± 0.71
8,ATATATATATATATATGTACATATTTATATTGTAAA [XGTACX_site8878],11.1 ± 0.62
9,TATAAATTTTTATTTACATGCAGTTATTATTTCCAT [TGCATGCA_site41],10 ± 0.18
10,TATTAAAAGGTTAAAGCATGCATACATATATATGTT [TGCATGCA_site865],9.64 ± 0.16
11,TTTTTGTTACCTATTGTGCACTTCATATAAATTAAA,10.8 ± 0.54
12,AATAATAAATAAAAATGTACACATACATTTCTATCC [XGTACX_site7057],11.3 ± 0.94
13,GTAATACCCAAACACACACACATACCCATATATATA [CACACA_site5510],10.3 ± 0.26
14,AGAAAGTAAAGCTGTTGTACTATTATATATATTTTA [XGTACX_site8090],11 ± 0.66
15,TTTGTTTGATATATGTGTACATATATATATTATGCT [XGTACX_site3522],11.4 ± 0.69
16,TTTCTTTTTAAATAATAATGTATAATAAAAAGTTCA [TGCATGCA_negctrl_site195],9.86 ± 0.4
17,TATAATATGTATATCTGTACATATTTTAAATCTAAT [XGTACX_site2426],11 ± 0.94
18,AAGTACAATTCATGTATGCACTTTATTATATTTTAT,10.7 ± 0.37
19,TGTTATGAGAACAGCACACAAGCTACATCATATATA [CACACA_site870],9.99 ± 0.18
20,TATATATAAGATTGATGTACGATTTTGGTGTCTTAT [XGTACX_site2611],11.2 ± 0.82
21,ATAATAATATATAGTACACACAAAAATGGAAGTAAA [CACACA_site3318],11.3 ± 0.73
22,TATTATAGTATATATTGTACATATATATATTTTTTA [XGTACX_site8831],11 ± 0.68

row,Sequence,gcPBM binding intensity (ln)
1,AAAGTATAAATAAATACACACATATTTATTTATATA [CACACA_site7375],9.96 ± 0.2
2,TAAAAATATTATAATGCATGCAAAATATTGTTATAA [TGCATGCA_site244],9.53 ± 0.15
3,ATAGTTTTTCCAATTCAAAAAAAAAAAAAAAAAAAA [CACACA_negctrl_site969],9.69 ± 0.41
4,AACATATGATTAAACTGTACAAGAAAAATATAACAT [XGTACX_site4477],10.9 ± 0.42
5,GAGAGGATCATCAATTCACACACATAAAAATGAAGT [CACACA_site9010],9.915 ± 0.007
6,TTATATAATGACAAAAAAAAAAAAAAAAAAAAAAAA [CACACA_negctrl_site1467],9.75 ± 0.35
7,GTATGATTACAAGAAAGTAGTCCACTTTAACAACAA [CACACA_negctrl_site1304],11.3 ± 0.75
8,TAGATATTTTTGAAAAGTACAAATTTTTAAAAATTA [XGTACX_site4420],11 ± 0.87
9,ATGTACATAAACCGCACACATATAAAAAAATAAATA [CACACA_site5571],11.1 ± 0.78
10,AGTCCATTTTATTATTGTACATATTAATTTATATCA [XGTACX_site672],11.1 ± 0.66
11,ATTCAGAGTATATAAAAATTAATATATACATAATAT [CACACA_negctrl_site1782],9.73 ± 0.014
12,TAATTTATCCTATAATGTACTTATAAAATATATCAT [XGTACX_site1460],11.1 ± 0.74
13,AAAAAAAAAAAATACACACAAACACAAATTAAATAA [CACACA_site3809],9.895 ± 0.021
14,ATTATAGAATATTGAAGTACAAAATTTAAAATAAGT [XGTACX_site1468],11.1 ± 0.67
15,TAGGAAAATTACAAAAGTACTTGGCACATAATAATG [XGTACX_site6005],11.1 ± 0.46
16,AATATTTTGTTATTTATTTAATCTAATATTACTATC [CACACA_negctrl_site4],9.695 ± 0.078
17,ATATATATATAAATATGTACATATATACATATATAC [XGTACX_site2374],11.2 ± 0.82
18,AAATAACATAATAAGGGTACATTAATTTCGATAATG [XGTACX_site835],11.2 ± 0.79
19,ATCATATCCACCAAATGAATAATATAAAATAATATA [XGTACX_negctrl_site193],9.86 ± 0.22
20,TATATATATATATATGCACACATTTATACAATTTTA [CACACA_site2986],10.2 ± 0.56
21,AAATATCTACAAATATGTACATATTTTTTTTGGCTT [XGTACX_site6301],11.3 ± 0.73
22,AGAAAAAAAAAAAAAAAACACACGGTACATCCAAAG [CACACA_site124],10.8 ± 0.41

row,Sequence,gcPBM binding intensity (ln)
1,ATCAAATTATAATCATGTACAAATAAAAAAAAAAAA [XGTACX_site313],10.7 ± 0.65
2,ATAGAAGCTGTTGACGAAGAAAAAAAAAAAAAAAAA [CACACA_negctrl_site110],9.82 ± 0.47
3,CATATAAATAAACACACACACACATATATATATATA [CACACA_site5309],10.2 ± 0.4
4,TAAAATTAAATGAAATCATTATTCATTTTTATTTTA [CACACA_negctrl_site1281],9.28 ± 0.24
5,ATTCTTTTTTTTTTCTTATATTCTAATCACCACCTT [XGTACX_negctrl_site179],10.1 ± 0.49
6,ATGAAATTATTATATAAACACACATTTATTTTATTT [CACACA_site8597],9.54 ± 0.22
7,AATAGGTGCCTTTTTTCACACACATGTCAACTAAAT [CACACA_site8846],10.2 ± 0.21
8,TTTGGTAAGCGTGTCGCATGTAGAACAAGTCTACAT [TGCATGCA_site577],10.2 ± 0.14
9,ATTAAAATGGAGTATTAATATGATATATATATATAT [GTGCAC_negctrl_site509],10.3 ± 0.42
10,AGGAACATTTACGCCCCACACACCTACCAACAAAAA [CACACA_site3827],10.6 ± 0.4
11,TAAATACAGACATACACACATACACCCACATATATA [CACACA_site547],10.3 ± 0.24
12,TTACAACCATAAAATGCATGTAAATGACAAAAAAAA [TGCATGCA_site944],10 ± 0.17
13,AATATATATATATATTGTACACACATTTATGCATAT [XGTACX_site6856],11.2 ± 0.61
14,TATATATATATTTTTGGTACAGATATTTTCTTCTCT [XGTACX_site4432],10.6 ± 0.33
15,ACATAATATACTATTGTGCACATATATATATATATA [GTGCAC_site9761],10.4 ± 0.24
16,TTTTTATTTTTTTATTTCTTATCAAATAAAATATAT [XGTACX_negctrl_site537],9.76
17,GTTAATTTAATTATATGTACGAAAAAATACGTTATA [XGTACX_site1306],11 ± 0.72
18,TCTTAATATGGTAATACACACTAATATACTTTTGTT [CACACA_site4969],10.01 ± 0.049
19,TTACAAAAAGGTAATTTACACACTGCATATAGGAAT [CACACA_site8956],10.2 ± 0.11
20,TGCTCAAACTTTACAAATGAACGAATATAAAAAAAG [CACACA_negctrl_site541],10.1 ± 0.13
21,AAATAATCATAAAATAAACACACATATATAAATATA [CACACA_site7981],9.775 ± 0.078
22,ACCCTTCAATTTAATTGTACAAGAAAAAAAAAAAAA [XGTACX_site2927],10.9 ± 0.81
